Laboratory results reported in article PMC9481464.
No constants are given. Whether binding was seen depends on the method and setting. For some assays here: Binding seen in cells or lysates may run through a third protein. Some binding calls cover weakened binding; strength is not graded here. One block for each substance: values may come before it.

Protein sequences, listed by entry. Tags and fused reporters are not part of them. Lines headed by an entry give the natural chain unless they say otherwise; changes in a name come on top. Chains listed by the source or under a name are the forms on record and can include a tag or linker.
UniProt Q8NFG4: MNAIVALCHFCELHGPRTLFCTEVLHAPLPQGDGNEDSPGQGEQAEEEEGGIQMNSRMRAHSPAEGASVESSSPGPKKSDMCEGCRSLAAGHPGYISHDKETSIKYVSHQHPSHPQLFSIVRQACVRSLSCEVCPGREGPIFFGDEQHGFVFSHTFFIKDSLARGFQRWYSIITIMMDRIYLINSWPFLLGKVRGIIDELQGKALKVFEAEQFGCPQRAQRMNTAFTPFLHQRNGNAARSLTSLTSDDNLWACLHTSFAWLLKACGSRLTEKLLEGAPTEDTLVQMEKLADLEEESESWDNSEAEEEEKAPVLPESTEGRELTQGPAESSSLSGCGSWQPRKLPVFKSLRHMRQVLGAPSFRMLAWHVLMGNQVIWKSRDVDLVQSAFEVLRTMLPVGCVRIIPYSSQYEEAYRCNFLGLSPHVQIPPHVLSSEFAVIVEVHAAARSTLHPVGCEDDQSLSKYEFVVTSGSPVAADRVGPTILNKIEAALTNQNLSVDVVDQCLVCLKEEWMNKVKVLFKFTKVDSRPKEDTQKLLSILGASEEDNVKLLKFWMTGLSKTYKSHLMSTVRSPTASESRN
UniProt Q9P278: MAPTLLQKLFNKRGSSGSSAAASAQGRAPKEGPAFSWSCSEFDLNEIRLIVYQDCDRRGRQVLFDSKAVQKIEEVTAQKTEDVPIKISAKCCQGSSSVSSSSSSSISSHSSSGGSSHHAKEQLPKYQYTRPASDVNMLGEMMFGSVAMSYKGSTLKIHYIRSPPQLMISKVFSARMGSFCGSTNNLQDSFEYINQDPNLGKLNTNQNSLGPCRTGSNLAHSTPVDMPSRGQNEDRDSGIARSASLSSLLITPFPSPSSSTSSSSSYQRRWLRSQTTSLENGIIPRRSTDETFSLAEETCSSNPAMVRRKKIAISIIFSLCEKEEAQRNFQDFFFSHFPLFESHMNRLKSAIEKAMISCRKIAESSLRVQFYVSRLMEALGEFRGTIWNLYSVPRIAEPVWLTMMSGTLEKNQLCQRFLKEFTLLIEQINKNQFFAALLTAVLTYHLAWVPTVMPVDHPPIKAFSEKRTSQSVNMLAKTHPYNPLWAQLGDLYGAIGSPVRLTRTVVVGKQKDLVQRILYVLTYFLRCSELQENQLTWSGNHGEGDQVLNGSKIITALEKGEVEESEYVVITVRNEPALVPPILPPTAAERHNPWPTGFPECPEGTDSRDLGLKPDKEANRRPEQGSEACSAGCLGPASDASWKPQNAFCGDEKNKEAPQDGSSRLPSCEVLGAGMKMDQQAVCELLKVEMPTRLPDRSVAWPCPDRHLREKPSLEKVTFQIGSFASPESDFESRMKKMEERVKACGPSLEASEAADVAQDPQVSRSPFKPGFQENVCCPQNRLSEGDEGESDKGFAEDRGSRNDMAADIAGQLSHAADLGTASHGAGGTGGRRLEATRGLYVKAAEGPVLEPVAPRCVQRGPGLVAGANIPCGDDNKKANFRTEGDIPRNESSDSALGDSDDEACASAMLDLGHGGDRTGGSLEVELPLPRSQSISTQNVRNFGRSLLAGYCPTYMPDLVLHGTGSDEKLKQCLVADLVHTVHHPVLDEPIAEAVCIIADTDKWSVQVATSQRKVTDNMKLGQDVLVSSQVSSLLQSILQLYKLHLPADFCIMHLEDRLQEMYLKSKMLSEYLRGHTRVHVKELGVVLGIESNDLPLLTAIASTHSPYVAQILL
UniProt O75140: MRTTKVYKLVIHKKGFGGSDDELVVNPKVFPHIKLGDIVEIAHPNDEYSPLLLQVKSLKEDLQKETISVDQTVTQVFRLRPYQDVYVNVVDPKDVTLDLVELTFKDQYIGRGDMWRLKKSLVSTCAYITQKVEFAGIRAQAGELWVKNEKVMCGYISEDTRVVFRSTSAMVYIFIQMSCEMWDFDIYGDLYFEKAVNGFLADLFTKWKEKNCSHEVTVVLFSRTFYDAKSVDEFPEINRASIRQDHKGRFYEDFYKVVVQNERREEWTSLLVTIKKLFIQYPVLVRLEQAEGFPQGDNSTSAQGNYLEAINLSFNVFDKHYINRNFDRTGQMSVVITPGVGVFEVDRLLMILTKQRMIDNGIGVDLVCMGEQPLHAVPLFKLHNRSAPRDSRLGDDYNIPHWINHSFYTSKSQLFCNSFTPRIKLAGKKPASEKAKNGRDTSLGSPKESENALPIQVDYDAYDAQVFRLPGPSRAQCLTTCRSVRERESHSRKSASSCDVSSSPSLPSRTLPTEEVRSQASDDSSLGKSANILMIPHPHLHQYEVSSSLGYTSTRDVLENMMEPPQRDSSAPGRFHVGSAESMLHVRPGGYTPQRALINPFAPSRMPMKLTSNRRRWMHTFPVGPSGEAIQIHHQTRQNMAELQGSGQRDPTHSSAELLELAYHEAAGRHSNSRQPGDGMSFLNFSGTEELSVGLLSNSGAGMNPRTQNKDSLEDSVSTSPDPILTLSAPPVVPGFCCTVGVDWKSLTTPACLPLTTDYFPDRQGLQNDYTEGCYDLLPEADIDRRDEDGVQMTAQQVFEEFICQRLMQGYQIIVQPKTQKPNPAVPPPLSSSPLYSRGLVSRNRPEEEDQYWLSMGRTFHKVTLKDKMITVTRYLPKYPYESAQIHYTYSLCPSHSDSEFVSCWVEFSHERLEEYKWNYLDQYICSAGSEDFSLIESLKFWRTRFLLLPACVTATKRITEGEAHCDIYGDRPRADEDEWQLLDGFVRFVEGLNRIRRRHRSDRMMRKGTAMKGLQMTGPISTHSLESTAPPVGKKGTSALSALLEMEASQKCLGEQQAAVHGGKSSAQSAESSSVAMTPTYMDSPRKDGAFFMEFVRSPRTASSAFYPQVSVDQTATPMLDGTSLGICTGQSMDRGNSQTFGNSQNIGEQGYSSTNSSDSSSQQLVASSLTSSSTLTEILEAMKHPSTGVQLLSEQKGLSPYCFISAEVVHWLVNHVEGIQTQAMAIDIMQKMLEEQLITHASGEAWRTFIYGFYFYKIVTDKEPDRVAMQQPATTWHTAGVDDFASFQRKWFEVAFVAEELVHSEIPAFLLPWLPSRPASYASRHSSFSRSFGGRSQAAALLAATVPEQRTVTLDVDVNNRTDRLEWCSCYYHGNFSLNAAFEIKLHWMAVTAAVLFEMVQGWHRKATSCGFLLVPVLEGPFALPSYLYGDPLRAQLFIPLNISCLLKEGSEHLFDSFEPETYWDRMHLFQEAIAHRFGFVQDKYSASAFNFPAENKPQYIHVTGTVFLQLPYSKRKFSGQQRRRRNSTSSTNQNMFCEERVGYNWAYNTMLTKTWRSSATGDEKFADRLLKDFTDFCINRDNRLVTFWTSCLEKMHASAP
UniProt Q9NQL2: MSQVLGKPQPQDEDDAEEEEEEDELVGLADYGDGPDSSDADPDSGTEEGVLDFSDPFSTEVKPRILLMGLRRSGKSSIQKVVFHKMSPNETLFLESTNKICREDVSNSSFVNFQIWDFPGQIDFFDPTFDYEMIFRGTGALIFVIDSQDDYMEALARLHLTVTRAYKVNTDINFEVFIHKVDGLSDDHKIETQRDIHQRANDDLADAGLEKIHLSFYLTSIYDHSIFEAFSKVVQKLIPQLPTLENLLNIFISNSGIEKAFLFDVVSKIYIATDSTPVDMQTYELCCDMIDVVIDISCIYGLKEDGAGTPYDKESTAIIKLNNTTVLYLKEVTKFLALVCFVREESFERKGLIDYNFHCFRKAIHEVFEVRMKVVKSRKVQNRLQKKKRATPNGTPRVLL
UniProt Q9HB90: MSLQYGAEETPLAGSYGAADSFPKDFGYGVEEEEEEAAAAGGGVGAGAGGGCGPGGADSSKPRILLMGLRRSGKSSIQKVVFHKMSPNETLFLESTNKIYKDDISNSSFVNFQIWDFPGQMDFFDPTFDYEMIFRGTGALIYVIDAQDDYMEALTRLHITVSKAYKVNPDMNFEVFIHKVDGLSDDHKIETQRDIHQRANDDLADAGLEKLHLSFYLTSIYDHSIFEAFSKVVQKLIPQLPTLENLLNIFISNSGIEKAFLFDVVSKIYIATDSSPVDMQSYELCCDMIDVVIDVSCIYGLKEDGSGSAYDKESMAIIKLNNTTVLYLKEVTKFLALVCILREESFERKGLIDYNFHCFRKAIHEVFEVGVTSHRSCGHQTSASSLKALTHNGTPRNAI
UniProt Q5VZM2: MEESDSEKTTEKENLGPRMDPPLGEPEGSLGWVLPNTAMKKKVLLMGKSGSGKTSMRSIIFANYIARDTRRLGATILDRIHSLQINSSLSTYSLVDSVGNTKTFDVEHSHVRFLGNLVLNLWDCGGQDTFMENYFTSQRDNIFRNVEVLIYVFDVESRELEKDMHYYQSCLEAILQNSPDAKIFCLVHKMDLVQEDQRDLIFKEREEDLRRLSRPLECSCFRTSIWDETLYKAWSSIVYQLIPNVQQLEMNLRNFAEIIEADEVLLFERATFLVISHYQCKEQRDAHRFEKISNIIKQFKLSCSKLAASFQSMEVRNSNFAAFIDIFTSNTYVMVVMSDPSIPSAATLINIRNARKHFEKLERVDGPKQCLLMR
GTP-locking mutant of RagB^long with D96A (Q5VZM2, form named): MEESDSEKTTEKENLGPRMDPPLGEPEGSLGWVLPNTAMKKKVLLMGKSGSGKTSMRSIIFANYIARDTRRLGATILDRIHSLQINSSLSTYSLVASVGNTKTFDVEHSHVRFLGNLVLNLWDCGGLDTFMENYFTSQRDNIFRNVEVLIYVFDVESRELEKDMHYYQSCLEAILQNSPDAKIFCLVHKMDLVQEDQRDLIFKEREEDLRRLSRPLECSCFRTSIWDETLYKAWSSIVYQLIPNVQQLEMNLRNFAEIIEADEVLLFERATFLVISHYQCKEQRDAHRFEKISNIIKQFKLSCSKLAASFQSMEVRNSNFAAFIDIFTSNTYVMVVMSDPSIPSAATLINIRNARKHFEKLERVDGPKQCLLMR
RagB^shortAQVHS (Q5VZM2-2, form named): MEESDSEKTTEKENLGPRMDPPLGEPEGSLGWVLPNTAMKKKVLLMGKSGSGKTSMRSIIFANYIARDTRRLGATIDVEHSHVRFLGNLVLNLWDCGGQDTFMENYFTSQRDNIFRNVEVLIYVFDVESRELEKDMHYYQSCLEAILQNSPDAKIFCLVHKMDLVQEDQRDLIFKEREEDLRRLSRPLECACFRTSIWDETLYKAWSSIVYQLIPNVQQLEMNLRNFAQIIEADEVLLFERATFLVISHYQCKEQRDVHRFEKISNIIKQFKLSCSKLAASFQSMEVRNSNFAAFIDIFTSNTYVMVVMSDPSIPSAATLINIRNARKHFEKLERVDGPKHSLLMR
RagB^shortΔN (Q5VZM2-2, form named): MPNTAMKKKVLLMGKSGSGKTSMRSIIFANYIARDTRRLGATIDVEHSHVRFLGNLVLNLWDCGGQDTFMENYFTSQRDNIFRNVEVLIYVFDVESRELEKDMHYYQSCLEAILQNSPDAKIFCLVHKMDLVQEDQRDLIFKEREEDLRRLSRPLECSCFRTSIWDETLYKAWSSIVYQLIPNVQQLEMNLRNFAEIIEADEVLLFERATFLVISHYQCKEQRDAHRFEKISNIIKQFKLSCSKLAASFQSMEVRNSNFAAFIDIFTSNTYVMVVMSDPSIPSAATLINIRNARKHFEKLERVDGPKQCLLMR
non-GTP-bound RagB^short (T54N) (Q5VZM2-2, form named): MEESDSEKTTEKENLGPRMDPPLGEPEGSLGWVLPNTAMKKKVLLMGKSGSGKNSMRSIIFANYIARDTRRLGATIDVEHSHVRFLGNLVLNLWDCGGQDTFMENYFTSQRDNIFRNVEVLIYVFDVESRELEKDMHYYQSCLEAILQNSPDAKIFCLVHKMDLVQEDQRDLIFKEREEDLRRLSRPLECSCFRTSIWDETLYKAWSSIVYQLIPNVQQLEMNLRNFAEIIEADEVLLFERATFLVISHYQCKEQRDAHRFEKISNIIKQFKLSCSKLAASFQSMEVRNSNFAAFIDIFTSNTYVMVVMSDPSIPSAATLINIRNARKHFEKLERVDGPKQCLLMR
untagged RagB^short purified from bacteria (Q5VZM2-2, form named): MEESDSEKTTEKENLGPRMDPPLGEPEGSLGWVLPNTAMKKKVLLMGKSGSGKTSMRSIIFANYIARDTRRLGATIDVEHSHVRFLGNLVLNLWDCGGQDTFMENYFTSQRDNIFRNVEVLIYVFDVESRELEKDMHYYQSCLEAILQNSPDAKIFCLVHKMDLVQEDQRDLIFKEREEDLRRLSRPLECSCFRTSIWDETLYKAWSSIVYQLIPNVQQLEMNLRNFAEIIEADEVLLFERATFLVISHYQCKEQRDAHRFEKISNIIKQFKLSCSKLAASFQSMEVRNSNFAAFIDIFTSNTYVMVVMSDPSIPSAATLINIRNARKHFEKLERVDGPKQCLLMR
GTP-locking mutant of RagB^long with L94A (Q5VZM2, form named): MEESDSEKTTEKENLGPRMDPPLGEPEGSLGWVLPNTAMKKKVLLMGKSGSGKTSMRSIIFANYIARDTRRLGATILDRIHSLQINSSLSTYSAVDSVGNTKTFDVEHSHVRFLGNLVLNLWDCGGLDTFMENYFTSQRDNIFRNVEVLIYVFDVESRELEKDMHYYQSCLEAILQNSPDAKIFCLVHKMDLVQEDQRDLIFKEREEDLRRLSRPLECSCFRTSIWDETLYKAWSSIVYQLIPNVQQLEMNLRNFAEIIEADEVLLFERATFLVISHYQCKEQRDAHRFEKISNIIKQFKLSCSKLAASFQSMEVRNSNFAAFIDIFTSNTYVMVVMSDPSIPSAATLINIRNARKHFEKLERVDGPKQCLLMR

Tests used:
[1] = biological target: folliculin complex (FLCN, FNIP2) (human (cDNA from HEK293T cells)) (UniProt Q8NFG4+Q9P278); assay: co-IP; folliculin complex (FLCN, FNIP2) with Rag dimers harbouring nucleotide-state mutations or RagB^long mutants; lysis in 40 mM HEPES pH 7.4, 5 mM MgCl2, 1% Triton X-100; washes with 500 mM NaCl
[2] = biological target: GATOR1 complex (DEPDC5, Nprl2, Nprl3) (UniProt O75140); assay: co-IP; whole GATOR1 complex with RagA/B isoforms and their mutants, taken to reflect mainly the inhibitory (DEPDC5) interface; lysis in 40 mM HEPES pH 7.4, 5 mM MgCl2, 1% Triton X-100; washes with 500 mM NaCl
RagD (human) = RagD (human) (UniProt Q9NQL2); assay: co-IP; HA-tagged RagA, RagB^short or RagB^long with myc-tagged RagC and RagD; lysis in 40 mM HEPES pH 7.4, 5 mM MgCl2, 1% Triton X-100; washes with 500 mM NaCl
[3] = biological target: FLAG-tagged RagC^Q120L (human) (UniProt Q9HB90); assay: co-purification; untagged RagA/B proteins co-transfected with FLAG-tagged RagC (S75N or Q120L) in RagABKO HEK293T; anti-FLAG beads, washes with 300 mM NaCl added, FLAG peptide elution; Coomassie staining
[4] = biological target: purified GATOR1 complex containing DEPDC5^Y775A (UniProt O75140); assay: pull-down; 6 ug purified GATOR1 (DEPDC5^Y775A) held on anti-HA magnetic beads; 3 ug of each purified Rag heterodimer added overnight in CHAPS buffer (40 mM HEPES pH 7.4, 150 mM NaCl, 2 mM MgCl2, 0.1% CHAPS) with 200 uM GDP; washes with 500 mM NaCl; empty beads as background control; both purified
[5] = biological target: FLAG-tagged RagC^S75N (human) (UniProt Q9HB90); assay: co-purification; untagged RagA/B proteins co-transfected with FLAG-tagged RagC (S75N or Q120L) in RagABKO HEK293T; anti-FLAG beads, washes with 300 mM NaCl added, FLAG peptide elution; Coomassie staining
Nprl2/3 dimer = biological target: T1, Nprl2/3 dimer (UniProt Q8WTW4); assay: co-IP; Nprl2/3 dimer with Rag GTPases in DEPDC5KO cells, to assess the GAP interface only; lysis in 40 mM HEPES pH 7.4, 5 mM MgCl2, 1% Triton X-100; washes with 500 mM NaCl
T1 sequence 1: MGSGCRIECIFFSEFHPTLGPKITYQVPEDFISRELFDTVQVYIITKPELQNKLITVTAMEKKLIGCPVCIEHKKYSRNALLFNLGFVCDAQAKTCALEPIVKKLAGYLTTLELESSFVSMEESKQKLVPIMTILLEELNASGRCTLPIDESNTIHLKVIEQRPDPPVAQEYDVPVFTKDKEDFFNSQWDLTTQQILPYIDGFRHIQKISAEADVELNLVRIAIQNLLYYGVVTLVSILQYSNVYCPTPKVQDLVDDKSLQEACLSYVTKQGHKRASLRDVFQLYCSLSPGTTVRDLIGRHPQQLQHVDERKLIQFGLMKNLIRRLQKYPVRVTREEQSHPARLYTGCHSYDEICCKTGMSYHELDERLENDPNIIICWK
T1 sequence 2: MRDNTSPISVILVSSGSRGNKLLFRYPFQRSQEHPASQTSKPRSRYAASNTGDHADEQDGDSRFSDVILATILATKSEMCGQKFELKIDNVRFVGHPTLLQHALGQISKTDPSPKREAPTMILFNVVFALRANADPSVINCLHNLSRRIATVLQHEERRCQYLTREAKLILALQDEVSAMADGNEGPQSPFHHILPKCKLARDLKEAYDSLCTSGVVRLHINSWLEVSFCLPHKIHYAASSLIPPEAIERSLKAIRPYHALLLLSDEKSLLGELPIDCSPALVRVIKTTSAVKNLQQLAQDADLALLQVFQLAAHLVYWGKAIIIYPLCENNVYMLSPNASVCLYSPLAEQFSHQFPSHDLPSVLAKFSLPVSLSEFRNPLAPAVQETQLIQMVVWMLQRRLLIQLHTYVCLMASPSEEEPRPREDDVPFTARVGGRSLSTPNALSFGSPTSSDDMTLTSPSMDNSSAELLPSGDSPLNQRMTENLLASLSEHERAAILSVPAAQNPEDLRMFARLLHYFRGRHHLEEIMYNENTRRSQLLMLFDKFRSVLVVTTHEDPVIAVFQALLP

RagC (human) = RagC (human) (UniProt Q9HB90); assay: co-IP; HA-tagged RagA, RagB^short or RagB^long with myc-tagged RagC and RagD; lysis in 40 mM HEPES pH 7.4, 5 mM MgCl2, 1% Triton X-100; washes with 500 mM NaCl
[6] = biological target: N-terminally His-tagged RagC^S75N (human) (UniProt Q9HB90); assay: co-purification; untagged RagA or RagB^short co-expressed with N-terminally His-tagged RagC^S75N in E. coli; Ni-NTA, anion exchange and gel filtration; Coomassie staining

Substance: GTP-locking mutant of RagB^long with D96A (from UniProt Q5VZM2 1-374)
binding [1]: binds

Substance: RagB^shortAQVHS (from UniProt Q5VZM2-2 1-346)
binding [2]: binds

Substance: untagged RagB^longT54N purified from HEK293T cells (from UniProt Q5VZM2 1-374)
binding [3]: binds

Substance: untagged RagB^shortT54N purified from HEK293T cells (from UniProt Q5VZM2-2 1-346)
binding [3]: binds

Substance: non-GTP-bound RagB^long (T54N) (from UniProt Q5VZM2 1-374)
binding (Nprl2/3 dimer): binds
binding [2]: no binding

Substance: GTP-locked RagB^long (Q127L) (from UniProt Q5VZM2 1-374)
binding [1]: binds
binding [2]: binds weakly

Substance: RagB^long (from UniProt Q5VZM2 1-374)
binding (RagD (human)): binds
binding (RagC (human)): binds
binding [2]: binds weakly

Substance: GTP-locking mutant of RagB^long with L94A (from UniProt Q5VZM2 1-374)
binding [1]: binds

Substance: untagged RagB^short purified from bacteria (from UniProt Q5VZM2-2 1-346)
binding [4]: binds
binding [6]: binds

More lines, now with the values ahead:

binding (RagD (human)): binds
Substance: RagA (from UniProt Q7L523 1-313)

binding [2]: binds
Substance: RagB^shortΔN (from UniProt Q5VZM2-2 1-346)

binding [4]: binds
binding [5]: binds
Substance: untagged RagB^long purified from HEK293T cells (from UniProt Q5VZM2 1-374)

binding [1]: binds
binding (Nprl2/3 dimer): binds
Substance: non-GTP-bound RagB^short (T54N) (from UniProt Q5VZM2-2 1-346)

binding (RagD (human)): binds
binding (RagC (human)): binds
binding [2]: binds
Substance: RagB^short (from UniProt Q5VZM2-2 1-346)
